Experiment [1] concerns the target HA-tagged wild-type TFIIB (human) (UniProt Q00403). Put plainly: co-IP; HEK293T transfected with HA-tagged TFIIB or S65A; cells untreated or treated with 100 nM calyculin A for 30 min before lysis; anti-HA immunoprecipitation in buffer with phosphatase inhibitors; immunoblot with anti-Ssu72 and anti-CstF-64.
For experiment [2], the target named is HA-tagged TFIIB S65A (human) (UniProt Q00403). The description is as above.
Experiment [3] has as its target T1, CstF-64 (human (endogenous in HEK293T)) (UniProt P33240).
T1 sequence: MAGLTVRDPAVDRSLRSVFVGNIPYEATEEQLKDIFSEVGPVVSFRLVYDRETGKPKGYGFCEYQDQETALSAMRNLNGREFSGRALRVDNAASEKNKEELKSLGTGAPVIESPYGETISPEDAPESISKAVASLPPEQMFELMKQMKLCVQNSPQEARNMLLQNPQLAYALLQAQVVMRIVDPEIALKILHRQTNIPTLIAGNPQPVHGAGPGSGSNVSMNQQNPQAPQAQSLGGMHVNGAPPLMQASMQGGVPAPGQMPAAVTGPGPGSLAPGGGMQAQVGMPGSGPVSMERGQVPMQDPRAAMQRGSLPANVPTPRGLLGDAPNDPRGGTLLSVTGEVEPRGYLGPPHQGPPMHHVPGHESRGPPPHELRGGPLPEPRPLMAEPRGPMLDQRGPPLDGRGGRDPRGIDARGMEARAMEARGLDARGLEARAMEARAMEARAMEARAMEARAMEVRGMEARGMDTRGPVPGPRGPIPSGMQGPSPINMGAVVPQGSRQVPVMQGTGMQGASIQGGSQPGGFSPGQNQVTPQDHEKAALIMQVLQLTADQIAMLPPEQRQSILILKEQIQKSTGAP
In words: co-IP; endogenous proteins; HEK293T whole-cell extract prepared with phosphatase inhibitors, mock treated; immunoprecipitation with anti-Ssu72 or anti-CstF-64 antibodies, immunoblot with anti-TFIIB.

By UniProt entry, the sequences of proteins in these tests, tags left out. Where a name states a change or a piece, a line headed by the entry shows the natural chain unless it says otherwise.
UniProt Q00403: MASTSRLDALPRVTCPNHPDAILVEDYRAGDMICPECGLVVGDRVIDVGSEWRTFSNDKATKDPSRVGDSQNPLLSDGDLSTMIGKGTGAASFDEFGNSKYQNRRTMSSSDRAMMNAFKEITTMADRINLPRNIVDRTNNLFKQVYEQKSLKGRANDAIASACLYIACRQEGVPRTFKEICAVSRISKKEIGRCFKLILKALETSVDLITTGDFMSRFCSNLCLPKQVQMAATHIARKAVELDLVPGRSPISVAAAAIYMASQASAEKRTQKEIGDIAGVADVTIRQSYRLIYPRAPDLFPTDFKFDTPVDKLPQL
UniProt Q9NP77: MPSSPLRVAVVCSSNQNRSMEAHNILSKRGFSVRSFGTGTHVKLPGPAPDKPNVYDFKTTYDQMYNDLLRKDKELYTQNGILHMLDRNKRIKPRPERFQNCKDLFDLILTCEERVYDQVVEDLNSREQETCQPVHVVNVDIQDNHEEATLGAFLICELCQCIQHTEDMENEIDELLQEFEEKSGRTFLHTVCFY

For experiment [4], the target named is Ssu72 (human (endogenous in HEK293T)) (UniProt Q9NP77). The description is as above.
The target in experiment [5] is T1, CstF-64 (human (endogenous in HEK293T)). Put plainly: condition: only extracts treated with lambda phosphatase; co-IP; endogenous proteins; HEK293T whole-cell extract treated with lambda phosphatase before immunoprecipitation with anti-Ssu72 or anti-CstF-64 antibodies, immunoblot with anti-TFIIB. (In general: In western blotting, separated proteins are transferred to a membrane and probed.)

The target in experiment [6] is Ssu72 (human (endogenous in HEK293T)) (UniProt Q9NP77). In words: co-IP; endogenous proteins; HEK293T whole-cell extract treated with lambda phosphatase before immunoprecipitation with anti-Ssu72 or anti-CstF-64 antibodies, immunoblot with anti-TFIIB.

Results are given in words; binding and its absence hold for the method and conditions named. Binding seen in cells or lysates may run through a third protein. Some results given as binding are weak or reduced against the parent protein; the word gives no strength.

As to Ssu72 (from UniProt Q9NP77 1-194), the binding entry in experiment [1] and in experiment [2] was “binds” in each case.
Turning to “TFIIB (endogenous) (from UniProt Q00403 1-316)”, the binding result in experiment [3] is on record as “binds”; in experiment [4], “binds”; in experiment [5] it was “no binding”; in experiment [6] it was “binds”.

B1: CstF-64 (protein, UniProt P33240 1-577)
chain: MAGLTVRDPAVDRSLRSVFVGNIPYEATEEQLKDIFSEVGPVVSFRLVYDRETGKPKGYGFCEYQDQETALSAMRNLNGREFSGRALRVDNAASEKNKEELKSLGTGAPVIESPYGETISPEDAPESISKAVASLPPEQMFELMKQMKLCVQNSPQEARNMLLQNPQLAYALLQAQVVMRIVDPEIALKILHRQTNIPTLIAGNPQPVHGAGPGSGSNVSMNQQNPQAPQAQSLGGMHVNGAPPLMQASMQGGVPAPGQMPAAVTGPGPGSLAPGGGMQAQVGMPGSGPVSMERGQVPMQDPRAAMQRGSLPANVPTPRGLLGDAPNDPRGGTLLSVTGEVEPRGYLGPPHQGPPMHHVPGHESRGPPPHELRGGPLPEPRPLMAEPRGPMLDQRGPPLDGRGGRDPRGIDARGMEARAMEARGLDARGLEARAMEARAMEARAMEARAMEARAMEVRGMEARGMDTRGPVPGPRGPIPSGMQGPSPINMGAVVPQGSRQVPVMQGTGMQGASIQGGSQPGGFSPGQNQVTPQDHEKAALIMQVLQLTADQIAMLPPEQRQSILILKEQIQKSTGAP
Turning to B1, the binding entry in experiment [1] is given as “binds”.

The values are drawn from publication PMC2849011.
